The campaign covered roughly 150,000 compounds. About 540 (0.36%) showed an effect of 50% or more. This is one part of the list.

The test system of the assay is Plasmodium falciparum. Nature of the assay: Primary screen in NF54 nanoGlo assay, in single point, at 2uM, 72h; a lower Z score goes with more inhibition. Format: functional, Erythrocyte. As to conditions: timepoint 72 hour.
Usually % Inhibition stands for the relative decrease from the control value, in per cent. With `Cc1n[nH]c(CN2CCOc3cc(F)c(Br)cc32)n1`, the “% Inhibition” value was determined as 0% and the Z score came out at 0.09.
Consider `NC(=O)COC1CCN(C(C(=O)NC2CC2)c2ccccc2)C1` (stereo unspecified), for which the “% Inhibition” value was -10% and the Z score is 1.31.
Regarding `COc1ccc(-c2csc3ncnc(NC[C@H]4CCCO4)c23)cc1`, the “% Inhibition” value is listed as -7% and the Z score was 0.64.
Taken in the same sequence, the figures for `Fc1ccc(-c2n[nH]cc2-c2nnc(-c3ccncc3)o2)cc1` were -10% and 1.9.
For `CC(NC1CCN(C(C)C)C1=O)C1CC1(C)C` (stereo unspecified), the “% Inhibition” value is reported as -18% and the Z score came to 3.32.
For `O=C(O)c1ccc(Oc2nccnc2N2CCCC2)cc1`, in that order: 31% and -3.48.
For `COC(=O)[C@@H](Nc1nc(C)cc(OC)n1)C(C)C`, in that order: 7% and -1.06.
Taken in the same sequence, the figures for `Cc1cnc(-c2noc(C(C)(C)F)n2)s1` were -1% and 0.11.
Take `Cc1ccc(Br)cc1C(=O)[C@H](C#N)C(=O)NC(C)C`: the “% Inhibition” value was -1% and the Z score worked out at 0.07.
As to `CN1CCC(N(CCc2ccccc2)C(=O)c2cccc(O)c2)CC1`, the “% Inhibition” value is on record as 11% and the Z score is on record as -1.39.
Taken in the same sequence, the figures for `Cc1nc([C@H]2CCCN(C(=O)c3ccc(=O)[nH]c3)C2)cc(N2CCOCC2)n1` were -5% and 0.81.
`CCc1ccc2c(CC(=O)N[C@H]3CCc4nc(C)cn4C3)coc2c1`: the “% Inhibition” value is on record as -17% and the Z score was 1.65.
Taken in the same sequence, the figures for `O=C(c1ccc(=O)[nH]c1)N1CCN(Cc2ccccc2)[C@@H]2CS(=O)(=O)C[C@@H]21` were -3% and 0.51.
For `CCC[C@H](C)N1CC2(CCN(C(=O)CCn3ccc(C)n3)CC2)OC1=O`, in that order: -5% and 0.64.
In the case of `CC(C)(C)c1nc(CS(C)(=O)=O)cs1`, the “% Inhibition” value was -6% and the Z score was determined as 0.71.
Taken in the same sequence, the figures for `Cc1c(C(=O)NCc2n[nH]c(N)n2)n(C)c2ccc(F)cc12` were 2% and -0.16.
Taken in the same sequence, the figures for `Cc1nn2c(N3CCC(Cc4ccccc4)CC3)cc(C(C)(C)C)nc2c1-c1ccccc1` were -4% and 0.58.
Taken in the same sequence, the figures for `CCn1nc(COc2ccccc2OC)nc1-c1cccn1C1CC1` were 4% and -0.49.
For `CCNc1ncc(CN2CCC(N3CCc4ccccc4C3)CC2)cn1`, the “% Inhibition” value is listed as -12% and the Z score is given as 1.53.
Taken in the same sequence, the figures for `O=C1CCCC[C@@H](C(=O)NCc2ccccc2)N1` were 5% and -0.73.
For `CN1CC(=O)N2CCN(Cc3cc(O)c4cc(F)ccc4n3)C[C@H]2C1=O`, in that order: -11% and 2.15.
For `CCCO[C@H]1CCCN(c2nc(N)nc(C)c2CCC(=O)O)C1`, the “% Inhibition” value was -10% and the Z score is recorded as 0.94.
For `CN(Cc1ccccc1)c1ncccc1CNC(=O)[C@H]1CCCNCC1`, in that order: 3% and -0.65.
For the compound `O=C(NCc1cc(F)cc(F)c1)c1ccc2ccccc2n1`, the “% Inhibition” value came to 36% and the Z score is -4.81.
On to `CN(Cc1cccs1)C(=O)CN1C(=O)N[C@]2(CCc3ccccc3C2)C1=O`, for which the “% Inhibition” value was -2% and the Z score was 0.26.
Taken in the same sequence, the figures for `Cc1cccc(NS(=O)(=O)c2ccc(-c3[nH]ncc3C(=O)N3CCOCC3)o2)c1C` were -7% and 0.86.
Taken in the same sequence, the figures for `CC(N)C1CCCCN1C(=O)c1cc(Oc2ccccc2)ccn1` (stereo unspecified) were 1% and -0.1.
For `CCCn1ncnc1[C@H](C)NS(=O)(=O)c1cccnc1`, in that order: 2% and -0.49.
`O=C(c1cc(-c2ccco2)n[nH]1)N1CCN(c2ccccc2)CC1`: the “% Inhibition” value worked out at 13% and the Z score is recorded as -1.62.
For `Cc1cc(C)c(NC(=O)C(C)S(=O)(=O)CC2CCCO2)c(C)c1` (stereo unspecified), in that order: -12% and 1.56.
Taken in the same sequence, the figures for `CN(Cc1cn(C)nn1)[C@H]1CCCC[C@H]1C(F)(F)F` were -7% and 1.3.
Taken in the same sequence, the figures for `O=C(c1nc2n(n1)C1(CCCCC1)[C@@H]1CCCC[C@@H]1N2C(=O)C1CCCCC1)N1CCOCC1` were -26% and 2.33.
With `CCn1nc([C@H](O)c2ccccc2)nc1Cc1ccc(O)c(Cl)c1`, the “% Inhibition” value was 0% and the Z score is -0.02.
For the compound `CCCCN(CC(N)=O)C(=O)c1ccc(OC)nc1`, the “% Inhibition” value came to 0% and the Z score is recorded as -0.01.
For `Cc1cc(-c2cccc(C(=O)N3CCC[C@H](N)C3)c2)c2cc(F)cc(F)c2n1`, in that order: -9% and 1.33.
Taken in the same sequence, the figures for `CNC(=O)N1CCC[C@H](CN2CCOCC2)C1` were -11% and 1.96.
Taken in the same sequence, the figures for `O=S(=O)(Cc1ccccc1)NC[C@H]1CCCN1c1ccccc1` were -11% and 2.14.
Regarding `CCn1nc(-c2ccco2)nc1C[C@H](C)N1CCOCC1`, the “% Inhibition” value is listed as -8% and the Z score is given as 1.67.
Taken in the same sequence, the figures for `CN(C(=O)c1cc(-c2ccc(F)cc2)[nH]n1)c1ccccc1` were 25% and -2.78.
Taken in the same sequence, the figures for `C[C@H]1c2cc(Cl)cc(Cl)c2CCN1C(=O)CCc1cccnc1` were -8% and 1.35.
For `COc1c(NC(=O)CNc2ccccc2)c(C)nn1C`, in that order: -1% and 0.07.
As for `CC1(C)CC2(CCCCC2)N2C(=O)[C@@]3(NC(=O)c4ccccc4N3)c3cccc1c32`, the “% Inhibition” value was 2% and the Z score is recorded as -0.28.
Taken in the same sequence, the figures for `Cc1csc(CN2CCn3c(nn(CC(=O)N(C)C)c3=O)C2)n1` were 5% and -0.67.

These data come from ChEMBL document CHEMBL4888484, “Replenishing the malaria drug discovery pipeline: Screening and hit evaluation of the MMV Hit Generation Library 1 (HGL1) against asexual blood stage Plasmodium falciparum ,using a nano luciferase reporter read-out” (2022).
